Measured values from a compilation of properties of binary mixtures (doi:10.1021/acs.iecr.0c01893).
The densities may have been worked out from excess volumes.

Test: xn = mol fraction of the nth substance listed
Conditions: 100 kPa

Row | SMILES | mass density (293.15 K, x1 = 0.333) [kg/m3] | mass density (293.15 K, x1 = 0.5) [kg/m3] | mass density (303.15 K, x1 = 0.333) [kg/m3] | mass density (303.15 K, x1 = 0.5) [kg/m3] | mass density (303.15 K, x1 = 0.667) [kg/m3] | mass density (313.15 K, x1 = 0.333) [kg/m3] | mass density (313.15 K, x1 = 0.5) [kg/m3] | mass density (313.15 K, x1 = 0.667) [kg/m3] | mass density (323.15 K, x1 = 0.5) [kg/m3] | mass density (323.15 K, x1 = 0.667) [kg/m3] | mass density (293.15 K, x1 = 0.667) [kg/m3]
1 | CC[n+]1ccn(C)c1.O=S(=O)([O-])C(F)(F)C(F)(F)C(F)(F)C(F)(F)C(F)(F)C(F)(F)C(F)(F)C(F)(F)F + O=C(O)C(F)(F)C(F)(F)C(F)(F)C(F)(F)F | 1689.3 | 1672.1 | 1673.9 | 1662 | 1673.2 | 1656.4 | 1649 | 1660.8 | 1635.1 | 1647.7 | –
2 | CCCC[N+](CCCC)(CCCC)CCCC.O=S(=O)([O-])C(F)(F)C(F)(F)C(F)(F)C(F)(F)F + O=C(O)C(F)(F)C(F)(F)C(F)(F)C(F)(F)F | 1400.9 | 1351.7 | – | 1341.4 | 1298.5 | – | 1331.1 | 1289.3 | 1320.8 | 1279.5 | 1306.6
3 | C[N+](C)(C)CCO.O=S(=O)([O-])C(F)(F)C(F)(F)C(F)(F)C(F)(F)F + O=C(O)C(F)(F)C(F)(F)C(F)(F)C(F)(F)F | – | 1633.6 | – | 1621 | – | – | 1608.7 | – | 1596.4 | – | –
